Source: PubChem BioAssay AID1768 (National Center for Advancing Translational Sciences (NCATS), 2009)
Hit rate of the full screen: of about 270,000 compounds, about 620 (0.23%) were called active. This list was built around the results that the source calls inconclusive (neither active nor inactive); the mix of calls is not that of the screen. The call rests on the fitted dose curve; in most records, active means well fitted inhibition curve with a large enough effect in the polarisation, with a control signal flat (not every such curve was filed as active); inconclusive means small, poorly fitted or top-dose-only effect, or effect the other way, or a change in a side signal; inactive means no such curve, though single readings can be large or run the other way; the % refers to the polarisation. Potencies of inconclusive entries are doubtful fits and often do not repeat. “Side channel” marks fits to a control or component signal instead of the main read-out.

These molecules were tested against Menin (Homo sapiens) (UniProt O00255) (assay: qHTS Assay for Inhibitors Targeting the Menin-MLL Interaction in MLL Related Leukemias: Competition With Texas Red Labeled MLL-derived Mutant Peptide). Details: fluorescence polarization; FP activity change, negative = inhibition: at 61.6 µM (top of the series).
Sequence of UniProt O00255 (O00255 whole entry, looked up): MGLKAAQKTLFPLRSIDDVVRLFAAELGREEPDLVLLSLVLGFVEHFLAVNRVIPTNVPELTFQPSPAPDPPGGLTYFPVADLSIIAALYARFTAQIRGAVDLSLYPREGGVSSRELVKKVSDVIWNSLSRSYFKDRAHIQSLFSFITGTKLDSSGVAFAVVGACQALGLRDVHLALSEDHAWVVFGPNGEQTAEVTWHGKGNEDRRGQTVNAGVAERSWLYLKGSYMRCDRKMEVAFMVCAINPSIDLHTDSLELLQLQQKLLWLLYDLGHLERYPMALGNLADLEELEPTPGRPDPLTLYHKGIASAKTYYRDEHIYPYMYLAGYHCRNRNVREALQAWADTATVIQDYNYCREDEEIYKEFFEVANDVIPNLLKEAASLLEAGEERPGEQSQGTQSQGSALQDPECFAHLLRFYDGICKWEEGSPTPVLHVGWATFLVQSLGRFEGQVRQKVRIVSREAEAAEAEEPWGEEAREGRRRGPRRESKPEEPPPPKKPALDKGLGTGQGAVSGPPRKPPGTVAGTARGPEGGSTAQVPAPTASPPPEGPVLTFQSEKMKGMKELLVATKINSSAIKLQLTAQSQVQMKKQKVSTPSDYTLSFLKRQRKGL
Potency means the concentration at half of the fitted maximal effect; tags describe the fitted curve by direction and shape or compound fluorescence and quenching.
Wherever FP activity change, negative = inhibition is given: % of control where 0% means no effect.

SMILES	Potency	FP activity change, negative = inhibition
Cc1ccc(C(=O)Nc2cc(Cl)ccc2OC(=O)c2ccc(C)cc2)cc1	inconclusive: 3.16 µM [inhibitor, single point]	–
Cc1nc2c(-c3ccc(F)cc3)cnn2c(N)c1-c1ccccc1	inconclusive: 10 µM [quencher, side channel, partial curve]	–
Cc1ccc(C2C(C#N)=C(N)Oc3c2sc2ccccc32)o1 (configuration not stated)	inconclusive: 17.8 µM [quencher, side channel, single point]	–
C/C=C1\C(=O)CC2C3CCC4=CC(=O)CC[C@]4(C)C3CC[C@]12C (some centres not stated)	inconclusive: 1.26 µM [fluorescent, side channel, partial curve]	–
CCc1nnc(NS(=O)(=O)c2ccc(NC(=O)c3cccc(Br)c3)cc2)s1	inconclusive: 15.8 µM [quencher, partial curve]	–
O=C(c1ccc(Br)cc1)N1CCCC(c2nc(-c3cccs3)no2)C1 (configuration not stated)	inconclusive: 22.4 µM [fluorescent, side channel, partial curve, poor fit]	–
O=C(Nc1cccc(Cl)c1)Nc1ccccc1C(=O)NCc1ccco1	inconclusive: 5.62 µM [quencher, side channel, partial curve]	–
COC(=O)C1=C(C(=O)OC)[C@@H]2N(C)c3ccccc3[C@@]23C[C@@H](C(=O)OC)N(S(=O)(=O)c2ccc4c(c2)OCCN4C)C3=N1	–	inactive: -7.39% [at 11.7 µM]
COc1ccc(NS(=O)(=O)c2cccc(NC(=O)c3cnccn3)c2)cc1Br	inconclusive: 31.6 µM [quencher, partial curve]	–
Nc1ccc(C(=O)CC(=O)Nc2ccc(Cl)cc2)cc1	inconclusive: 17.8 µM [quencher, side channel, partial curve]	–
COc1ccc(NS(=O)(=O)c2ccc3oc4ccccc4c3c2)cn1	inconclusive: 35.5 µM [quencher, side channel, single point]	–
CC(=O)Nc1sc(/C(C#N)=C\c2cccc(Cl)c2)nc1-c1ccc(C)cc1	inconclusive: 39.8 µM [inhibitor, single point]	–
CSc1ccc(S(=O)(=O)N2CCC(C(=O)NCCN3CCOCC3)CC2)cc1	inconclusive: 2.51 µM [inhibitor, full curve]	–
O=C(Cn1c(=O)c2c(ncn2Cc2ccccc2)n(Cc2ccccc2)c1=O)NC1CC1	inactive	–
COc1ccc(Nc2nc(N(C)c3ccccc3)nc(N)c2[N+](=O)[O-])cc1	inconclusive: 20 µM [quencher, side channel, partial curve]	–
O=C(Cn1cnc2c(cnn2-c2ccccc2)c1=O)Nc1cc(S(=O)(=O)N2CCOCC2)ccc1Cl	inconclusive: 17.8 µM [quencher, side channel, single point]	–
COc1ccc2nc(SCC(=O)NN)cc(C)c2c1	inconclusive: 39.8 µM [fluorescent, side channel, single point]	–
CC(C)(C)c1nc(N2CCN(C(=O)c3ccco3)CC2)c2nnn(Cc3ccccc3)c2n1	inconclusive: 3.16 µM [fluorescent, side channel, full curve, poor fit]	–
COCOc1ccc(Br)cc1C(=O)/C=C\c1ccc2c(c1)OCO2	–	inactive: 4.42% [at 11.7 µM]

SMILES	Potency	FP activity change, negative = inhibition
C#CCCCO/N=C1/[C@H]2O[C@@H]2[C@@H](O)[C@H]2[C@H]1CCn1c(=O)n(C)c(=O)n12	–	inactive: 5.18% [at 11.7 µM]
O=C(Nc1nc(-c2ccc(F)cc2)cs1)c1cnccn1	inconclusive: 39.8 µM [inhibitor, single point]	–
COc1ccc(/C=N/N=C2/NC(=O)C(CC(=O)O)S2)cc1OCc1ccc(Cl)cc1 (configuration not stated)	inconclusive: 12.6 µM [quencher, side channel, partial curve]	–
Cc1ccc(NNc2c(C)nc3ccccc3nc2=O)cc1	inconclusive: 25.1 µM [quencher, side channel, single point]	–
COc1cc(/C=C2\SC(N3CCCCC3)=NC2=O)cc(OC)c1OC	inconclusive: 4.47 µM [inhibitor, full curve]	–
CCOc1ccc(C(C(=O)NC2CCCCC2)N(C(=O)c2csnn2)C2CC2)cc1 (configuration not stated)	inconclusive: 2.24 µM [inhibitor, partial curve, poor fit]	–
O=C(O)c1cccc(COc2ccccc2Cl)c1	inconclusive: 0.631 µM [inhibitor, full curve, poor fit]	–
NNc1nc(Nc2ccccc2)nc(Nc2ccccc2)n1	inconclusive: 39.8 µM [inhibitor, single point]	–
O=C(Nc1ccc(Cl)cc1)Nc1nnc(CSCc2ccc(Cl)cc2)s1	active: 7.94 µM	–
O=c1c2ccccc2[nH]c2ccc(F)cc12	inactive	–
Cc1cc(C)c2nc(-c3ccncc3)cc(C(=O)N3CCN(Cc4ccccc4Cl)CC3)c2c1	inconclusive: 8.91 µM [fluorescent, side channel, single point]	–
O=C(Sc1cccc2cccnc12)c1ccc(F)cc1	inconclusive: 2.82 µM [quencher, side channel, full curve, poor fit]	–
Cc1cc2cc(C)c(SCC(=O)NCc3ccco3)nc2cc1C	inconclusive: 12.6 µM [fluorescent, side channel, partial curve]	–
COc1cc(NC(=O)NC2Cc3ccccc3C2)cc(OC)c1	inconclusive: 39.8 µM [inhibitor, single point]	–
C/C=C1\COC(C(=O)NCCOCCO)(C(F)(F)F)C=C1C=C1CCCCC1 (configuration not stated)	inconclusive: 2.51 µM [inhibitor, full curve, poor fit]	–
Cc1c(C(=O)NCCC2=CCCCC2)sc2ncnc(N3CCCCC3C)c12 (configuration not stated)	inconclusive: 28.2 µM [inhibitor, partial curve]	–
COC(=O)c1sccc1NC(=O)c1ccnn1C	inconclusive: 39.8 µM [inhibitor, single point]	–
Fc1ccc(Nc2ccnc(-c3ccccc3C(F)(F)F)n2)cc1	inconclusive: 11.2 µM [quencher, side channel, partial curve]	–
